According to PMC2423471, “HyperISGylation of Old World Monkey ISG15 in Human Cells” (PLoS ONE, 2008):

Biological target: T1, HuUbE1L (purified recombinant) (human, UniProt P41226 1-1012)
T1 construct: source: bought: Boston Biochem
T1 sequence (looked up): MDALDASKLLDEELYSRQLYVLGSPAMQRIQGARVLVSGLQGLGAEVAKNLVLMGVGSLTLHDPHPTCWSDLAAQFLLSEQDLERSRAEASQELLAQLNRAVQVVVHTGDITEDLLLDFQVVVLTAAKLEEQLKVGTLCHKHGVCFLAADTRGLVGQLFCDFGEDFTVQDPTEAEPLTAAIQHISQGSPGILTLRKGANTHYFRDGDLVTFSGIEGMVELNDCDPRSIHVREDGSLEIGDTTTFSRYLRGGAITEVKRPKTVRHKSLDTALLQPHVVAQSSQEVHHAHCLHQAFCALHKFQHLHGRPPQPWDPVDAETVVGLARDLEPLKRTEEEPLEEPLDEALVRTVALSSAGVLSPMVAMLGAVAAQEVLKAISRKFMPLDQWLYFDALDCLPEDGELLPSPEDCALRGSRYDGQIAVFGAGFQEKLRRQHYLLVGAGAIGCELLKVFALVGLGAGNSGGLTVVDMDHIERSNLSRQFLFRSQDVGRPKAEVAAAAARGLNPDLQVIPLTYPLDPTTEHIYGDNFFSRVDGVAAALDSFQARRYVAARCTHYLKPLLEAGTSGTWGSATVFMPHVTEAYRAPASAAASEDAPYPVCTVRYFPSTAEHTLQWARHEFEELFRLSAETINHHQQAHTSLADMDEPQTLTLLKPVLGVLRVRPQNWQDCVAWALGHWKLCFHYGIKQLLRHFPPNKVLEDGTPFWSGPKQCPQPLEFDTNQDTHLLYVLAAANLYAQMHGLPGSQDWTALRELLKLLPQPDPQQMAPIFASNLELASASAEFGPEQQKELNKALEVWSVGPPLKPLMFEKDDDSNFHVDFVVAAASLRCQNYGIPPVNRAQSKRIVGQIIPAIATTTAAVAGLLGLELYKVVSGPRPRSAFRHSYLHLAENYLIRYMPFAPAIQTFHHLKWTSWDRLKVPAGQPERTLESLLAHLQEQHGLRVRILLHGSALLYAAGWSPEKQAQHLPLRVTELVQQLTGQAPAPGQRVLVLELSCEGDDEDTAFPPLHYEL
Test: in vitro thiolester formation, non-reducing SDS-PAGE; 2.5 µM UbcH8, 200 nM UbE1 or UbE1L, 7.5 µM mature Hu- or AgmISG15; 50 mM HEPES pH 8.0, 100 mM NaCl, 1 mM Mg-ATP, 45 min at 37°C; covalent E1-ISG15 thiolester band on non-reducing SDS-PAGE, disrupted by β-ME
Details: both partners purified

binding result: binds
B1: mature HuISG15 (purified recombinant) (natural protein)
chain: not shown
notes: Mature ISG15 (with removed C-terminal peptide), human, allelic variant with N at position 83 and S at position 94; also called mature ISG15; source: pTYB1 vector, IPTG-induced cultures, purified (IMPACT intein/chitin column, DTT cleavage, dialysis)
